Results from publication PMC7819943, “Rice protein-binding microarrays: a tool to detect cis-acting elements near promoter regions in rice”.
The other results are listed elsewhere or left out.

molecular target: T1, OsWOX13 (Oryza sativa, UniProt Q5QMM3 1-267); assay: protein-binding microarray (RPBM); PBS, 2% BSA, 51.3 ng/ul salmon testes DNA, 50 uM zinc acetate, 200 nM TF, 25 C, 1 h; high values mean tight binding; details: protein: recombinant; tags: N-terminal polyhistidine and DsRed monomer fusion (pET32a); label: CyDye5-dUTP incorporated in the synthesized complementary strand; 3' TTTTT single-stranded linker to array surface; dsDNA, one strand shown
T1 sequence: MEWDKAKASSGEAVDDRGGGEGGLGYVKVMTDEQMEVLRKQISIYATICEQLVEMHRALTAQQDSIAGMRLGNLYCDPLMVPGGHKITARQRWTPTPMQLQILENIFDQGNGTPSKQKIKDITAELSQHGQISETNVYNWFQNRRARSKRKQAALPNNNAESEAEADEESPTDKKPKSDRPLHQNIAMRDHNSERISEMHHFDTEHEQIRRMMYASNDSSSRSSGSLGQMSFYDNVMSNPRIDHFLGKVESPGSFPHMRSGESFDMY
How it was run: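 Using Ni–NTA, transcription factors fused N-terminally to polyhistidine and DsRed were purified after expression in E. coli BL21-CodonPlus. These were incubated at 200 nM with a blocked, double-stranded custom Agilent array for 1 h at 25 °C in a buffer containing 50 µM zinc acetate, and the array was washed. The binding signal is per-feature fluorescence intensity (arbitrary units) on an Axon 4000B scanner.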

Sequence | binding signal
GATCGATCTCGTTAATTAGGGTTAGATCACCGGCCGGCACCGGAGTCACCTAGTGCAG | 4420 fluorescence intensity (a.u.)
CCATTTTAAATCATTGAAATCCCTGTATATGCATTACAAGCGGAGTCACCTAGTGCAG | 4730 fluorescence intensity (a.u.)
TTTGATGAAGCGATGATTATTTTAAATTTTCTTTTGGTTTCGGAGTCACCTAGTGCAG | 23300 fluorescence intensity (a.u.)
GGGTTCTTCCAGGTTAATTAATTAGCAAACACACACTTACCGGAGTCACCTAGTGCAG | 14100 fluorescence intensity (a.u.)
GAATGACTCAATTAGTCCGAATGACTGAAATTCCACGGGGCGGAGTCACCTAGTGCAG | 14000 fluorescence intensity (a.u.)
ATCCATAATGTAAAATTTTACCGTGTCACATCGAATATTACGGAGTCACCTAGTGCAG | 4480 fluorescence intensity (a.u.)
CCTAAATTGGAGGAGGGGATAAACTACATTGAAATTTCATCGGAGTCACCTAGTGCAG | 20300 fluorescence intensity (a.u.)
TACAGCCGTTGACAGTTAACTGAACTTTCACTAGTTCAATCGGAGTCACCTAGTGCAG | 6220 fluorescence intensity (a.u.)
GAGTAATATTCAACATTTTGATTAGAGGTTAACCGGTGTACGGAGTCACCTAGTGCAG | 5370 fluorescence intensity (a.u.)
GCTAATTGCCGCAAGCGAAGTCTCTCGCGCGCGCACCTTGCGGAGTCACCTAGTGCAG | 13800 fluorescence intensity (a.u.)
ATCACTTACAAGATTGACCAAATCACTTACAAGATTGGCCCGGAGTCACCTAGTGCAG | 14000 fluorescence intensity (a.u.)
GCACTAATTTATCTGCTAGTCTTATCTTGGCCACTTGGAACGGAGTCACCTAGTGCAG | 16600 fluorescence intensity (a.u.)
ATATATGTGGATAATAATTGAAGTACTTGCAGTTGCAGTACGGAGTCACCTAGTGCAG | 4110 fluorescence intensity (a.u.)
TTCAAATCATCTATAGTCAATTTAATAGCCAATTCATATACGGAGTCACCTAGTGCAG | 5390 fluorescence intensity (a.u.)
TATATATATATATATATATATTATATGGCTTAGCTTGCTGCGGAGTCACCTAGTGCAG | 10600 fluorescence intensity (a.u.)
TTAATTAACGGAATTACTCAACAACTCACATGGGACATGGCGGAGTCACCTAGTGCAG | 21300 fluorescence intensity (a.u.)
AGCTGAAATTAAGAACAGACAGACATGATCACAGATCGAGCGGAGTCACCTAGTGCAG | 10100 fluorescence intensity (a.u.)
TAGTTATATTTGATTATCTTGCGAACCTATATATAATATGCGGAGTCACCTAGTGCAG | 5250 fluorescence intensity (a.u.)
ATATTAATTGATGTTTTGGACAAGGTTGAGGTTAAACTTTCGGAGTCACCTAGTGCAG | 38200 fluorescence intensity (a.u.)
TGATAAATTTATTTCTTCAAATTCAGAAAGCTTGATGGTACGGAGTCACCTAGTGCAG | 22900 fluorescence intensity (a.u.)
AATAATGATAACTGATAAGGGTTTGTTTAGTCTGGATGAACGGAGTCACCTAGTGCAG | 18800 fluorescence intensity (a.u.)

Sequence | binding signal
TTAAATGTCAATTTTCTCCACATAGACTGGCCCATCGGTCCGGAGTCACCTAGTGCAG | 39400 fluorescence intensity (a.u.)
TTTGACTGTTTTGAACCCATGAACAAGTGCTGCACCAGAACGGAGTCACCTAGTGCAG | 5750 fluorescence intensity (a.u.)
TATTTCACATGGTAATTAGACAGCTAATTCCAAGCTTAAACGGAGTCACCTAGTGCAG | 9560 fluorescence intensity (a.u.)
GCAAATATGTAAATTACACCTGGAGACATAGGTTGTGTTTCGGAGTCACCTAGTGCAG | 8650 fluorescence intensity (a.u.)
TAGATAGATAGATATGTTTGTGTTTAAACAATAGGATTAACGGAGTCACCTAGTGCAG | 13600 fluorescence intensity (a.u.)
TTCTAAATTTGTGATGACAATAAGATTAACCTGTTTAAATCGGAGTCACCTAGTGCAG | 7850 fluorescence intensity (a.u.)
CCTTTGATTCAAATGATTGTAGCTTTCCAAATCCTATGAACGGAGTCACCTAGTGCAG | 7620 fluorescence intensity (a.u.)
TGTTTAATTAGTTAAGCATCTCTAGTTAAGTTAGATCAAACGGAGTCACCTAGTGCAG | 4520 fluorescence intensity (a.u.)
ATGAGCTCAAACTGGCTGATTTGATAGGAGGACAAGCTGCCGGAGTCACCTAGTGCAG | 5410 fluorescence intensity (a.u.)
ATTAATTACGTGTACAAATTTTCAGCCCATCAAACGGGCGCGGAGTCACCTAGTGCAG | 25100 fluorescence intensity (a.u.)
TGTGACTGCTCCTAAATGACATGCGACCCTCTAATAAATTCGGAGTCACCTAGTGCAG | 13500 fluorescence intensity (a.u.)
GATGATTGGTCCAAGTCATGGCTTCCGCTTTCCCTTTTGTCGGAGTCACCTAGTGCAG | 35900 fluorescence intensity (a.u.)
GCCAAAACCAAAATTTAAATTTTCGTACTTAATTTTGAAGCGGAGTCACCTAGTGCAG | 7460 fluorescence intensity (a.u.)
GATTATTGATTATCAGTAAGGGAGATTGAAAGTAACAGAACGGAGTCACCTAGTGCAG | 25700 fluorescence intensity (a.u.)
GATAAGAATCTAAATAGATTAGATTAAACTAGATTATATTCGGAGTCACCTAGTGCAG | 6100 fluorescence intensity (a.u.)
TACCGGATGATTTGTGTTCCTTTGCTGACTGTAGTGACGTCGGAGTCACCTAGTGCAG | 14200 fluorescence intensity (a.u.)
TTTTAATTAATTAGCTGTAAGTGTGTAAATCAACCATAACCGGAGTCACCTAGTGCAG | 35000 fluorescence intensity (a.u.)
TCTAAACATGTAATTTTCAAGTTCACGGACCAAAGTAACACGGAGTCACCTAGTGCAG | 3950 fluorescence intensity (a.u.)
TATTGATGGTCAAATTTCAAATTATACTGTTAACATTTGACGGAGTCACCTAGTGCAG | 9870 fluorescence intensity (a.u.)
ATAACAAAACAAATTACAGATTTTATCAGAATACTGCGAGCGGAGTCACCTAGTGCAG | 8000 fluorescence intensity (a.u.)
CAACAAATGGCTGCACTAATTGGGGCTAATTGTATATAGTCGGAGTCACCTAGTGCAG | 20500 fluorescence intensity (a.u.)

Sequence | binding signal
GTTTTGAATATTAATTTCATTCCTCTCGTGGATTCAGTTACGGAGTCACCTAGTGCAG | 3920 fluorescence intensity (a.u.)
AACCCTGATTTATGGACGGGTTTGTTGCTCCAGCAGACAACGGAGTCACCTAGTGCAG | 13200 fluorescence intensity (a.u.)
CATGGCAAACTAATTAAATTTCTCAACACCTAATTTTCCCCGGAGTCACCTAGTGCAG | 8740 fluorescence intensity (a.u.)
TTGATCAAATTGCCACGCAGACACCACGTCAGCCAAAACCCGGAGTCACCTAGTGCAG | 5010 fluorescence intensity (a.u.)
AATTAATAAAATAAATCTATTACAGTTAACTAAAGGTATTCGGAGTCACCTAGTGCAG | 5780 fluorescence intensity (a.u.)
ACTAATTACACAGTACGCCAGGAAATTGCGAGACGAACCTCGGAGTCACCTAGTGCAG | 23100 fluorescence intensity (a.u.)
TCTAATAAATTTAAGGATATACAGGTTCAAGTAATACGCCCGGAGTCACCTAGTGCAG | 9660 fluorescence intensity (a.u.)
ATAATTACATTTGTTGGCCCATAACGAGTTCTTTCACAATCGGAGTCACCTAGTGCAG | 4260 fluorescence intensity (a.u.)
CTTTCCAATTTGTTTAATTACCTGCTAACTTTGCTGCATCCGGAGTCACCTAGTGCAG | 14300 fluorescence intensity (a.u.)
GGGTAGACTTAGACTGACATGGGAGTTGGAAAATGAATTGCGGAGTCACCTAGTGCAG | 3340 fluorescence intensity (a.u.)
TAACTAATTTTGACCGGGTAGCATATAGTTTTGGGCTTTTCGGAGTCACCTAGTGCAG | 9950 fluorescence intensity (a.u.)
ATAATACTCAATTAAGAACCTGTTAATGGTTTTCCTTGCACGGAGTCACCTAGTGCAG | 13600 fluorescence intensity (a.u.)
GTTTTGTTGTTGCCAGTTTAGTCAATTACACTCTACTGATCGGAGTCACCTAGTGCAG | 3580 fluorescence intensity (a.u.)
TTACAATGGGATAGACATATTAATTATTCTCTCACACGAACGGAGTCACCTAGTGCAG | 6490 fluorescence intensity (a.u.)
ATTGGGTAATCAATAATCCTTTCCTACTAGATTAATGTCTCGGAGTCACCTAGTGCAG | 5090 fluorescence intensity (a.u.)
GATGAAACATTTGACATGAACTAAATTTTGTTCGGCAGTTCGGAGTCACCTAGTGCAG | 5180 fluorescence intensity (a.u.)
TTTAATTTTAACATGAACTAAACACGCCCCTAACAAGCAGCGGAGTCACCTAGTGCAG | 18400 fluorescence intensity (a.u.)
TAAACCTAATTAATCCATAATTAGAGAATGTTTACGGTAGCGGAGTCACCTAGTGCAG | 27000 fluorescence intensity (a.u.)
ATAACTATTTAATAAATTAATAAATTTTAAGTAAAATCATCGGAGTCACCTAGTGCAG | 7430 fluorescence intensity (a.u.)
TAGGATTTGACCATAGTAAATTAATTTGGAGGAATTGTTTCGGAGTCACCTAGTGCAG | 3990 fluorescence intensity (a.u.)
TATTAACTTGAGATAATTGGACTCCTAATTACAGCTCGTGCGGAGTCACCTAGTGCAG | 33300 fluorescence intensity (a.u.)

Sequence | binding signal
TTGATTATTGGGAAACGCTGAAATTCTATACGGAGGTTACCGGAGTCACCTAGTGCAG | 11000 fluorescence intensity (a.u.)
TTGATTTTAGTTATATTGGCTTAGACTTTTGAGCCCATCCCGGAGTCACCTAGTGCAG | 8920 fluorescence intensity (a.u.)
GGTTGGGACGTGGAGAGTTGTTTGTAGATCGAGTTGAAAGCGGAGTCACCTAGTGCAG | 3700 fluorescence intensity (a.u.)
ACTTAGATTAATTACATATTCCGCTTGTAAACTGCGAGACCGGAGTCACCTAGTGCAG | 42200 fluorescence intensity (a.u.)
ACCCATCAAATCACTGTATAACACTGTTTGACATTATTTCCGGAGTCACCTAGTGCAG | 3840 fluorescence intensity (a.u.)
TTTAATTGGAATATAATCATGTGATATCTTGTTATAACGACGGAGTCACCTAGTGCAG | 48600 fluorescence intensity (a.u.)
TTAAATAATTTTATTTTGTGGTGATGTTGGTTTGGTTATGCGGAGTCACCTAGTGCAG | 17000 fluorescence intensity (a.u.)
AATAATTTATGGGCTTAAACAAACAAAGTACTTCTGAAATCGGAGTCACCTAGTGCAG | 24800 fluorescence intensity (a.u.)
AACCAATCACACAGTCTGCATATAGATTACGAGACGAATCCGGAGTCACCTAGTGCAG | 22200 fluorescence intensity (a.u.)
TTTGGATTGGGTTTGGTGGTTGGGTGGGAGGGAGGGAGCTCGGAGTCACCTAGTGCAG | 18700 fluorescence intensity (a.u.)
AATTGCTGTTGATTTGCCACTACCACTCTCCCCAACAAGTCGGAGTCACCTAGTGCAG | 6370 fluorescence intensity (a.u.)
TCATTGATGACGTGAATAATAATAAAAGATTAGGGCTTAACGGAGTCACCTAGTGCAG | 11800 fluorescence intensity (a.u.)
GTAAAATCAATCTCGGTTTACCATATGCTAGCGACAGAGACGGAGTCACCTAGTGCAG | 6030 fluorescence intensity (a.u.)
CAGGATTAGCAAGTCATCTTACTATCTAATTAGGGCAGCACGGAGTCACCTAGTGCAG | 7900 fluorescence intensity (a.u.)
GTAATTAACAGCAATCAGCAAGTGGCCTAATTGCCAACCTCGGAGTCACCTAGTGCAG | 56700 fluorescence intensity (a.u.)
ACAGATTAGATTTCGATCACGTTTGAGGATCACAAAGTGACGGAGTCACCTAGTGCAG | 8800 fluorescence intensity (a.u.)
ACTAAATTTTACGACCCTTCTCCACTAACATGAGCTCCTCCGGAGTCACCTAGTGCAG | 7820 fluorescence intensity (a.u.)
CCTTGGTTTTAATTAATTCAATTTCTCGCCTCTTTTCTTCCGGAGTCACCTAGTGCAG | 10300 fluorescence intensity (a.u.)
TTTGAGACATGATTGCAAAATGTAATAGCCTATAACTTGACGGAGTCACCTAGTGCAG | 16700 fluorescence intensity (a.u.)
AACTCTAAAATCACTTTTAAAATTTTAAATTTTGTCTACGCGGAGTCACCTAGTGCAG | 3650 fluorescence intensity (a.u.)
TTGACAGTCTGTTCAACTAACCAACTGTGATGTTATCGATCGGAGTCACCTAGTGCAG | 3570 fluorescence intensity (a.u.)
